Laboratory results: the supplement of paper PMC4723716
Whole data set: some 3,600 compounds, median “viability index relative to DMSO control” near 0.81, cut for the lowest 2% near 0.13. The list shows a part of the results.

Test system: Plasmodium falciparum NF54 stage V gametocytes
Assay: viability index relative to DMSO control (fraction); higher = less gametocyte killing
Settings: 1.25 µM, incubation time: 72 h
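Note: 384-well serum-free SaLSSA: MitoTracker Red CMXRos staining with saponin lysis, high-content imaging, treated-well particle count divided by plate-mean count of DMSO wells.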

SMILES | viability index
CC(C)(C)CC(C)(C)c1ccc(OCC(=O)NN=C2C(=O)Nc3ccccc32)c([N+](=O)[O-])c1 | 1
CCOc1ccc2[nH]c(=O)c(CN(CCN(CC)CC)C(=S)NCCCN(CC)CC)cc2c1 | 0.534
Cc1sc2nc3c4ccccc4c(NCCCN(C)C)nn3c(=O)c2c1C | 0.711
CCSc1ncnc2scc(-c3ccccc3)c12 | 0.922
Cc1ccccc1OCCSc1nc2ccc(NC(=O)c3ccccc3)cc2s1 | 0.843
COc1ccc(NC(=O)C=Cc2ccccc2Cl)cc1 | 0.525
Cc1nnc(Nc2ccc(F)cc2)c2ccccc12 | 0.923
O=C(CN1CCN(S(=O)(=O)c2cccc([N+](=O)[O-])c2)CC1)Nc1ccc(OCc2ccccc2)cc1 | 1.03
CCn1c(SCC(=O)NCCc2ccccc2)nc2sc3c(c2c1=O)CCN(C)C3 | 0.857
O=C(C=Cc1ccc(Br)cc1)NC(=O)c1ccccc1O | 0.914
COc1ccc(C=C2SC(=Nc3ccc(F)cc3)NC2=O)c(OC)c1 | 0.38
CN(C)c1cc[n+](CC(=O)c2ccc(Cl)cc2)cc1 | 0.761
CC(=Cc1sc2ccc3occc3c2[n+]1CCO)C=C1Sc2ccc3ccoc3c2N1CCO | 0.577
Cc1c(-c2ccccc2)c2ccccc2n1CCc1ccc(C)[n+](C)c1 | 0.901
O=C(Nc1ccc(N2CCCCC2)cc1)c1cc2ccccc2o1 | 0.902
Clc1ccc(CCNC2CCN(CCc3ccccc3)CC2)cc1 | 0.669
O=C1CN(C(=O)CCC2CCCCC2)C(c2ccc(F)cc2)c2cc(F)ccc2N1 (stereo not drawn) | 0.968
COc1ccc(C(=O)C[n+]2cc(-c3ccc(OC)cc3)n3c2CCC3)cc1 | 1.19
COCCN(Cc1cc2ccc(F)cc2nc1N1CCCCCC1)C(=O)c1ccoc1 | 1.28
CCc1ccc2[nH]c(=O)c(CN(CCN(CC)CC)C(=S)NCCCN(C)C)cc2c1 | 0.935

SMILES | viability index
COC(=O)c1c(N)n(-c2ccccc2OC)c2nc3ccccc3nc12 | 0.808
CCOc1ccc(C(=O)C(CCC(C[N+]2(C)CCCCCC2)C(=O)c2ccc(OCC)cc2)C[N+]2(C)CCCCCC2)cc1 (stereo not drawn) | 0.837
COc1ccc(C=Cc2ccc3ccccc3[n+]2C)cc1 | 0.456
CC1=CC(=C(C#N)c2nc3ccccc3s2)C=C(C)N1CC1CCCO1 (stereo not drawn) | 0.798
COc1ccc(Nc2nc(NN=Cc3cccc([N+](=O)[O-])c3OC)nc(Nc3ccc([N+](=O)[O-])cc3)n2)cc1 | 0.469
Cc1ccc(NC(=O)C2CC3c4ccccc4C2c2ccccc23)cc1 (stereo not drawn) | 1.02
COc1cccc(CNC(=O)Cn2ncc3c(=O)oc4ccc(C)cc4c32)c1 | 0.843
O=[N+]([O-])c1ccc2nc(NC3CCCCC3)c(NC3CCCCC3)nc2c1 | 0.86
Oc1c(C(Nc2ccccn2)c2ccc(Br)cc2)ccc2cccnc12 (stereo not drawn) | 1.1
O=C(Nc1ccc(-c2nc3ccccc3[nH]2)cc1)c1cccc(C(=O)Nc2ccc(-c3nc4ccccc4[nH]3)cc2)n1 | 0.0331
O=C(O)C=CC(=O)N(C1CCCCC1)C1CCCCC1 | 0.982
N#Cc1cccc(C=CC(=O)O)c1 | 1.01
Cc1ccc(COc2ccc3c(C#N)c4ccccn4c3c2)cc1 | 0.325
COC(=O)C1=C(C)NC2=C(C(=O)CC(c3ccc(OC)c(OC)c3)C2)C1c1ccc(Br)cc1 (stereo not drawn) | 0.66
COC(=O)C1=C(C)NC2=C(C(=O)CC(C)(C)C2)C1c1ccccc1[N+](=O)[O-] (stereo not drawn) | 0.87
CCC(=O)N1CCc2cc(Br)cc(S(=O)(=O)N3CC(C)CC(C)C3)c21 (stereo not drawn) | 0.842
CCOc1ccc2[nH]c3c(NCCCN4CCOCC4)ncnc3c2c1 | 0.843
CCCCOc1ccc(C(O)C(CN2CCCCC2)c2ccccc2)cc1 (stereo not drawn) | 0.842
O=C1C2C(C(=O)N1c1ccccc1F)C1(c3ccccc3)C(=O)C2(c2ccccc2)C(c2ccccc2)=C1c1ccccc1 (stereo not drawn) | 0.943
COc1cc(OC)c(N(C)C(=O)c2cn(C3CCCC3)c(=O)c3c2c2ccccc2n3C)cc1Cl | 0.566

SMILES | viability index
O=C(CCCOc1ccc(Cl)cc1Cl)NCCCn1ccnc1 | 1.08
COc1ccc2nc(NC(N)=NC(=O)Nc3ccccc3)nc(C)c2c1 | 0.923
CC(=O)N(C1=C(N2CCCC2)C(=O)c2ccccc2C1=O)c1ccc(F)c(F)c1 | 0.743
CCOC(=O)C1=C(C)NC2=C(C(=O)CC(c3ccc(Cl)cc3)C2)C1c1ccc(Cl)cc1 (stereo not drawn) | 0.626
CC(C)(C)C(=O)Cn1ccc(=N)c2ccccc21 | 1.15
COc1ccc(NC2=C(N3CCCCC3)C(=O)c3ccccc3C2=O)cc1 | 0.181
Cc1ccc(-c2cc(-c3ccccc3)c(C#N)c(SCC(O)CS(=O)Cc3ccccc3)n2)cc1 (stereo not drawn) | 0.876
Cc1cccn2c(=O)c3cc(C(=O)NC4CCCC4)c(=N)n(CCc4ccccc4)c3nc12 | 0.614
Cc1ccc2nc3c(c(Nc4ccc(N(C)C)cc4)c2c1)CCC3 | 0.823
CC[n+]1c(C=C2Sc3ccccc3N2CCO)sc2ccccc21 | 0.88
Cc1cc2c(Nc3cccc(Cl)c3C)ncnc2s1 | 0.857
CCc1ccccc1N(CC(=O)NC1CCCCC1)C(=O)CCC(=O)Nc1ccccn1 | 0.938
CC(NC(=S)N(Cc1ccco1)Cc1cc2cc3c(cc2[nH]c1=O)OCO3)c1ccccc1 (stereo not drawn) | 0.627
C(=NNc1nc2ccccc2[nH]1)c1ccc2c(c1)OCO2 | 0.645
CCOC(=O)C1=C(C)NC2=C(C(=O)CC(c3ccc(OC)c(OC)c3)C2)C1c1ccccc1Cl (stereo not drawn) | 0.228
O=C(CCCc1nc(-c2ccccc2)no1)NCc1cccnc1 | 0.964
CCc1c(C)c(=N)c2ccccc2n1C | 0.801
O=C(Nc1ccc2c(c1)S(=O)(=O)c1cc(NC(=O)c3cccs3)ccc1-2)c1cccs1 | 0.649
